Our source for the binding values is paper PMC5431898.

The chains behind the UniProt entries cited, without tags or fusion partners.
UniProt Q94BT6: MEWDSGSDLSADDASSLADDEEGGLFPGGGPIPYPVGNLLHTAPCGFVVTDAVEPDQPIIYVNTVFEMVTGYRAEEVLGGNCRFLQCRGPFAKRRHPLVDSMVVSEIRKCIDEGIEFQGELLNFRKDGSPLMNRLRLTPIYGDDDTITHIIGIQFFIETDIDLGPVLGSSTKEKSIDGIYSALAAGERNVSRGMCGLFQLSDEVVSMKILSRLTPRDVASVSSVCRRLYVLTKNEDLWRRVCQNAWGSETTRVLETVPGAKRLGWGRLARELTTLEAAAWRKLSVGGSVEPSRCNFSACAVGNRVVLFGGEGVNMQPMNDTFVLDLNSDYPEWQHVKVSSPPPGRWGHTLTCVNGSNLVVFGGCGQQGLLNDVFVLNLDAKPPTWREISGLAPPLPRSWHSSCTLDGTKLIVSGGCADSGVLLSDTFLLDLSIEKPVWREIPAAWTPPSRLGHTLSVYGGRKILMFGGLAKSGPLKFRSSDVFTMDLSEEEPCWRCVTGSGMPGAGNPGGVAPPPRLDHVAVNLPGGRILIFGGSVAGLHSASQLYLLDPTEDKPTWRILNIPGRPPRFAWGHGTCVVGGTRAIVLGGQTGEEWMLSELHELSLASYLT

Assay [1] addresses T1, HA-GI^C (C-terminal region of GI, aa 920-1173) (Arabidopsis) (UniProt Q9SQI2).
T1 sequence: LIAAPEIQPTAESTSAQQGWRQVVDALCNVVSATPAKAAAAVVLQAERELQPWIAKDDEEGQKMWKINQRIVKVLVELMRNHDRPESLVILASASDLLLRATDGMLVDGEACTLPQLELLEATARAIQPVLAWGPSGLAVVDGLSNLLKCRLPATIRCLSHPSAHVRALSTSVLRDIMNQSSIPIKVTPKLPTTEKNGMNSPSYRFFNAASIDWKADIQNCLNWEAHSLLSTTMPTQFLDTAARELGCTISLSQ
Description: co-IP; HA-tagged GI FL, GI^N or GI^C co-infiltrated with GFP-tagged ZTL WT or ZTL^C82A into N. benthamiana leaves; IP with HA antibody (3F10), blots with anti-HA and anti-GFP.

Assay [2] has as its target T2, HA-GI^N (GI N-terminal polypeptide, aa 1-858) (Arabidopsis) (UniProt Q9SQI2).
T2 sequence: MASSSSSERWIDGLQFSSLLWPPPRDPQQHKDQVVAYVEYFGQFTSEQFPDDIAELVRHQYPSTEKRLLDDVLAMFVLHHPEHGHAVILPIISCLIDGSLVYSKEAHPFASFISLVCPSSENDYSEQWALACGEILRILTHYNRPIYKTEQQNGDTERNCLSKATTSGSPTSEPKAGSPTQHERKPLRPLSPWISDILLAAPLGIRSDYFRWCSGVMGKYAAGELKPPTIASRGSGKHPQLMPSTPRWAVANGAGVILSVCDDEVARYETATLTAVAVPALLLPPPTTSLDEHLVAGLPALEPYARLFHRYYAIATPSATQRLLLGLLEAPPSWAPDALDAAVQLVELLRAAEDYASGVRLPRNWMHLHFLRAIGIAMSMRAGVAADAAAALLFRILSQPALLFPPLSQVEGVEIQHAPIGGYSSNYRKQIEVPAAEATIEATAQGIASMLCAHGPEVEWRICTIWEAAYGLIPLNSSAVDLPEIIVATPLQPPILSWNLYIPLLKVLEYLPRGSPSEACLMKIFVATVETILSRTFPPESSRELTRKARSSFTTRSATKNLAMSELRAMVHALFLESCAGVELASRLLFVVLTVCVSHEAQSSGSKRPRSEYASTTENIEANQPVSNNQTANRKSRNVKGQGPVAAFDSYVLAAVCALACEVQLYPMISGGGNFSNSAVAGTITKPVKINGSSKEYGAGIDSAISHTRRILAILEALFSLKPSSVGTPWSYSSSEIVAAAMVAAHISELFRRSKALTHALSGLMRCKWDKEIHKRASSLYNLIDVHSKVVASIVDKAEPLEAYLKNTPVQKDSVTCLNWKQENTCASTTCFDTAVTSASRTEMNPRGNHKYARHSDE
The assay is described as above.

The target of assay [3] is T3, HA-tagged GI full length (FL) (Arabidopsis) (UniProt Q9SQI2).
T3 sequence: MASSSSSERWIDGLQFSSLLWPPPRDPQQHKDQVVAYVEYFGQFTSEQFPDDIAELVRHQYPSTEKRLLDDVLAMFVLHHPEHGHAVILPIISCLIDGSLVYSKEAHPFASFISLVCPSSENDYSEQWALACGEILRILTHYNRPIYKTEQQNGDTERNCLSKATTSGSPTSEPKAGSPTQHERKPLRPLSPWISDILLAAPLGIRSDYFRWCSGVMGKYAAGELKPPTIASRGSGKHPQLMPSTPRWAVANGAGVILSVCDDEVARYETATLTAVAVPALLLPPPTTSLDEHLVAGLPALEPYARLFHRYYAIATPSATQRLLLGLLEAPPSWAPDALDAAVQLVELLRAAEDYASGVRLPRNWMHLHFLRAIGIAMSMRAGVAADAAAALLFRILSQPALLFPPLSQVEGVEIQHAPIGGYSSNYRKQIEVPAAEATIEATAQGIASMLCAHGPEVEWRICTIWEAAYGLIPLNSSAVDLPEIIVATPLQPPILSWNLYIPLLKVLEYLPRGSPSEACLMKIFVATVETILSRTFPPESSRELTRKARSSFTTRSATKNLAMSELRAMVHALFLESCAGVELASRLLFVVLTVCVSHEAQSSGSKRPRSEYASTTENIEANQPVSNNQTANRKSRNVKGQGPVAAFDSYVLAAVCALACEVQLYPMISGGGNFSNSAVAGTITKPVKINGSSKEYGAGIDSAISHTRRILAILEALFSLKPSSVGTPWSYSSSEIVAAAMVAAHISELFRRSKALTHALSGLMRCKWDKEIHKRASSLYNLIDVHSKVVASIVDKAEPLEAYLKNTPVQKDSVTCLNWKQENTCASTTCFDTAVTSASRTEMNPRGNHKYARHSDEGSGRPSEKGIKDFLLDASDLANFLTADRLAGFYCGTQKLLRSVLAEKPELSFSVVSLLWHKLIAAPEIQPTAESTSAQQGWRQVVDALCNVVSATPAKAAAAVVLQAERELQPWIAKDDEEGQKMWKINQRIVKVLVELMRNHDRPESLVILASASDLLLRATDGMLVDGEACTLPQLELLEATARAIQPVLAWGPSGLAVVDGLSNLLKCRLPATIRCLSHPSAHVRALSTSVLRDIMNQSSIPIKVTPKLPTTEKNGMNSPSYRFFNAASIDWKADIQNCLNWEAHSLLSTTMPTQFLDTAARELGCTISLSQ
The assay is described as above.

For assay [4], the target named is T4, GI-TAP (35S:GI-TAP, N. benthamiana) (Arabidopsis) (UniProt Q9SQI2).
T4 sequence: T3 sequence
The assay is described as follows: co-IP; sequential co-IP from N. benthamiana co-expressing GI-TAP, HSP90-HA and ZTL-GFP: first IP on IgG-agarose (GI-TAP), release with 3C protease, second IP with anti-GFP (ZTL-GFP), detection of HSP90-HA.

For assay [5], the target named is T5, GI-HA (transient expression in N. benthamiana) (Arabidopsis) (UniProt Q9SQI2).
T5 sequence: T3 sequence
Description: co-IP; transient co-expression of ZTL-LUC variants with GI-HA in N. benthamiana; antibodies not told.

The target in assay [6] is T6, GI-TAP (GI:GI-TAP transgenic Arabidopsis) (Arabidopsis) (UniProt Q9SQI2).
T6 sequence: T3 sequence
Description: co-IP; 10-d-old GI:GI-TAP Arabidopsis seedlings harvested at ZT13, in vivo protein cross-linking; IP with anti-PAP antibody, blots with anti-HSP90, anti-ZTL and anti-PAP; untransformed Col as control.

Results are given in words; binding and its absence hold for the method and conditions named. Binding seen in cells or lysates may run through a third protein. Some binding calls cover weakened binding; strength is not graded here. For part of these data: Where a sequence is shown, tags or fusion partners need not be part of it.

Consider ZTL-GFP (from UniProt Q94BT6 1-609), for which the binding entry in assay [1] is given as “no binding”; in assay [2], “binds”; in assay [3], “binds”; in assay [4], “binds”.

Turning to ZTL^WT-LUC (from UniProt Q94BT6 1-609), in assay [5], the binding result is on record as “binds”.

As for “endogenous ZTL (Arabidopsis) (from UniProt Q94BT6 1-609)”, in assay [6], the binding entry is on record as “binds”.
